# In all, about 43,000 compounds went through this assay and about 200 (0.47%) were called active. Another 12% or so got no clear call; they are omitted. Calls come from the whole dose curve; as a rule, active = well fitted cell-killing curve with a large enough effect; inconclusive = small, poorly fitted or top-dose-only effect, or effect the other way; inactive = flat fitted curve, though single readings scatter. The list shows a part of the results.
# Experiment: Cell viability qHTS assay in S16 Pmp22-F2sN cells; note: nearly all actives have a fitted effect of over 65% in size
# Settings: S16 Pmp22-F2sN Schwann cells viability, CellTiter-Glo, 24 h; series mostly up to 57.5 µM; activity change, negative = cytotoxicity: at the top concentration
# Summary of the method: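 Viability was measured by CellTiter-Glo luminescence (15 min, room temperature). This followed 24 h at 37 °C of compound exposure (23 nL pin transfer) in S16 Pmp22-F2sN Schwann cells, 500-1,000 per well.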
# % is set by controls: 0 for no effect and ±100 for the full control effect.
row,Compound,"activity change, negative = cytotoxicity"
1,Cc1cc(C)cc(NC(=O)CCc2c(C)nc3nc(CNC(=O)c4cccc(F)c4)nn3c2C)c1,inactive: 9.35%
2,CCS(=O)(=O)N1CCc2cc(C(=O)Nc3ccc(Br)cc3F)ccc21,inactive: -10.3%
3,Cc1ccc(-n2c(=O)c3c(c4cc(C)ccc4n3C)n(CC(=O)Nc3ccc(F)cc3)c2=O)cc1,inactive: 21.7%
4,CC(=O)c1ccc(N2CCN(C(=O)c3cn(C)c(=O)c4c3c3ccccc3n4C)CC2)cc1,inactive: 13.1%
5,COc1ccc(CNC(=O)COCc2cc(-c3ccc4c(c3)OCO4)on2)cc1,inactive: 8.18%
6,CCc1cccc(C)c1NC(=O)c1ccc2c(c1)CCN2S(=O)(=O)c1ccc(Cl)cc1,inactive: -0.531%
7,Cc1ccc(S(=O)(=O)N2CC=C(c3c(C)n(CC(=O)N4CCCC4)c4ccccc34)CC2)cc1C,inactive: -11.8%
8,COc1cc(OC)cc(C(=O)NCCc2csc3nc(-c4ccccc4F)nn23)c1,inactive: 10.6%
9,Cc1sc(-n2cccc2)c(C(C)NC(=O)Nc2cccc(C(F)(F)F)c2)c1C (centres undefined),inactive: -5.54%
10,CCc1ccc(NC(=O)c2nc3nc(C)cc(C(F)F)n3n2)cc1,inactive: 6.86%
11,Cc1nc(N2CCOCC2)c2c(C(=O)NCc3ccc(Cl)cc3)c(C)oc2n1,inactive: -6.41%
12,Cc1ccc(OCCSc2nc3ccc(NC(=O)c4cccs4)cc3s2)cc1,inactive: -1.18%
13,CN(C)S(=O)(=O)N(CC(=O)Nc1ccc(C(F)(F)F)cc1)c1ccccc1,inactive: 10.5%
14,COc1ccc(CNC(=O)c2ccc3c(c2)N(Cc2cc(C)ccc2C)C(=O)CS3)cc1,inactive: 14.3%
15,COc1ccccc1CNS(=O)(=O)c1cc(Br)cc2c1N(C(=O)C1CC1)CC2,inactive: 10.2%
16,COc1ccc(CNc2nc(-c3ccc(Cl)cc3)nn2S(=O)(=O)c2ccc(C)cc2)cc1,inactive: 15.9%
17,COc1cccc(CNC(=O)c2cc(-c3ccc(Cl)cc3)n[nH]2)c1,inactive: 5.84%
18,O=C(CCC(=O)N1CCSc2ccccc21)Nc1ccc(Cl)cc1,inactive: -3.15%
19,CCC(CC)c1nn2c(=O)cc(COc3ccc(NC(=O)c4cccc(C)c4)cc3)nc2s1,inactive: 20.5%
20,CCOc1cccc(C(=O)N(Cc2ccc(C)o2)C2CCS(=O)(=O)C2)c1 (centres undefined),inactive: 0.618%
21,COc1ccccc1C(=O)Nc1nc2nc(C)cc(=O)n2[nH]1,inactive: 2.1%
22,Cc1cc(C)c2sc(NC(=O)c3ccc(S(=O)(=O)N4CCCC4)cc3)nc2c1,inactive: -1.21%
23,CCOc1ccc(NC(=O)C2(c3cccs3)CCOCC2)cc1,inactive: 18.8%
24,CCOC(=O)c1cccc(NC(=O)CCc2nc3cccnc3n2-c2ccccc2)c1,inactive: 6.57%

row,Compound,"activity change, negative = cytotoxicity"
1,CCOC(=O)c1c(C)[nH]c(CCC(=O)Nc2cc(Cl)ccc2OC)c1C,inactive: -6.1%
2,COc1ccc(OC)c(S(=O)(=O)Nc2ccc3c(c2)n(C)c(=O)n3C)c1,inactive: -1.26%
3,CCOC(=O)c1c(C)oc2ccc(N(C(=O)c3ccncc3)S(=O)(=O)c3ccc(CC)cc3)cc12,inactive: -16.5%
4,O=C(CN1C(=O)COc2ccc(S(=O)(=O)NC3CCCC3)cc21)Nc1ccc(Cl)cc1F,inactive: -19.6%
5,O=C(NCCS(=O)(=O)N1CCN(c2ccccc2)CC1)C1CC(=O)N(c2ccc(F)cc2)C1 (centres undefined),inactive: -2.14%
6,COc1ccc(NC(=O)CCSc2nc(-c3ccc(OC)cc3)cc(C(F)(F)F)n2)cc1,inactive: 14.7%
7,O=C(COc1ccc(F)cc1)OCc1cc(=O)n2nc(C3CCCCC3)sc2n1,inactive: -22.7%
8,CC1=C(C(=O)N2CCN(c3cc(C)ccc3C)CC2)C2(CCC(C)CC2)OC1=O (centres undefined),inactive: 5.3%
9,COc1ccc(C(C(=O)NCc2ccccc2)N(C(=O)Cn2nnc3ccccc32)c2cccc(OC)c2)cc1 (centres undefined),inactive: 1.99%
10,CCc1nnc(SCc2c(F)cccc2Cl)c2cc3sccc3n12,inactive: 17.7%
11,Cc1ccc(NC(=O)Cn2cc(C(=O)C3CC3)c3ccccc32)c(C)c1,inactive: -2.44%
12,CC(C)CCNC(=O)c1ccc2c(c1)NC(=O)C(CS(=O)(=O)Cc1ccc(F)cc1)N2 (centres undefined),inactive: 4.44%
13,COc1cc(NC(=O)C2CCN(c3cnc4ccccc4n3)CC2)cc(OC)c1OC,inactive: 2.67%
14,CCCc1cc(=O)n2[nH]c(NC(=O)c3ccc(C(C)(C)C)cc3)nc2n1,inactive: -3.17%
15,CC(=O)c1cccc(NC(=O)CN2C=NS(=O)(=O)c3ccc(C)cc32)c1,inactive: 10.9%
16,COc1ccc(C(=O)Nc2nc3nc(C)c(Cc4ccccc4)c(=O)n3[nH]2)cc1OC,inactive: 3.8%
17,Cc1ccc(CNC(=O)COCc2cc(-c3cccs3)on2)cc1,inactive: 0.36%
18,CC1=C(C(=O)Nc2cccnc2)C(c2cccc(Br)c2)n2nc(SCc3ccccc3)nc2N1 (centres undefined),inactive: 13.7%
19,CCOc1ccc(CNC(=O)C2CCN(S(=O)(=O)N3CCC(C)CC3)CC2)cc1OC,inactive: 6.07%
20,Cc1cccc(-c2noc(-c3ccccc3NC(=O)C3CC(=O)N(c4ccccc4C)C3)n2)c1 (centres undefined),inactive: 13.8%
21,CCn1c(=O)c2cc(C(=O)Nc3cc(OC)c(OC)c(OC)c3)sc2c2ccccc21,inactive: -9.36%
22,Cn1ccc2cc(S(=O)(=O)N3CCCC(C(=O)NCc4ccccc4)C3)ccc21 (centres undefined),inactive: -2.67%
23,CC1=C(C(=O)Nc2ccccc2C)C(c2ccncc2)n2nc(SCc3ccccc3Cl)nc2N1 (centres undefined),inactive: 8.91%
24,COc1cccc2cc(-c3nc(Nc4cccc(C)c4)sc3C)c(=O)oc12,inactive: 8.13%

row,Compound,"activity change, negative = cytotoxicity"
1,O=C(c1cccs1)c1cn(CCOc2ccccc2F)c2ccccc12,inactive: -24.2%
2,CCCCNC(=O)CSc1nc2ccccc2nc1Cc1ccc(C)cc1,inactive: -3.01%
3,COc1cccc(CN2C(=O)c3ccccc3Sc3ccc(C(=O)N(C)Cc4ccccc4)cc32)c1,inactive: 4.9%
4,CCOC(=O)c1ccccc1NC(=O)c1c2c(nc3ccccc13)C(=O)N(C1CCCCC1)C2,inactive: 21.4%
5,CC(C)c1ccc(S(=O)(=O)c2nnn3c2nc(N2CCN(C)CC2)c2sccc23)cc1,inactive: -10.5%
6,COc1cccc(CNC(=O)c2ccc3nc(-c4ccc(F)cc4)c(-c4ccc(F)cc4)nc3c2)c1,inactive: -29.1%
7,COc1cc(C2c3c(-c4ccccc4O)n[nH]c3C(=O)N2CCO)ccc1OCc1ccccc1 (centres undefined),inactive: 6.49%
8,CCOC(=O)C1CCCN(CC(=O)N2CCCc3c2c(=O)oc2ccc(OCc4ccccc4)cc32)C1 (centres undefined),inactive: 16.8%
9,COc1cc(OC)cc(C(=O)Nc2cc(-c3nc4cc(Cl)ccc4o3)ccc2Cl)c1,inactive: -4.58%
10,O=C(CN1C(=O)COc2ccc(S(=O)(=O)N3CCCC3)cc21)N1CCN(c2ccccc2)CC1,inactive: 2.22%
11,COc1ccc2c(Sc3ccccc3)c(C(=O)NCCc3ccc(Cl)cc3)[nH]c2c1,inactive: 6.72%
12,O=C(CSc1ncc2c(n1)-c1ccc(Cl)cc1N(Cc1ccccc1)S2(=O)=O)Nc1ccc(F)c(F)c1,inactive: -3.11%
13,CCOc1ccc(C2C(C(N)=O)=C(C)Nc3nc(SCc4ccccc4)nn32)cc1 (centres undefined),inactive: 12.9%
14,O=C(NCc1ccc2c(c1)CCN2C(=O)c1ccccc1)c1cc2ccccc2[nH]1,inactive: -11.1%
15,CCN1C(=O)c2ccccc2Sc2ccc(NC(=O)c3ccc(Cl)cc3)cc21,inactive: -9.54%
16,Cc1oc2ncn(C)c(=O)c2c1C(=O)N1CCN(c2ccccc2F)CC1,inactive: 3.84%
17,Cc1cccc(NS(=O)(=O)c2ccc3c(c2)C(C)(C)C(=O)N3C)c1,inactive: -7.78%
18,CCc1nn(Cc2ccc(Cl)cc2)c(=O)c2cc3cc(C)ccc3n12,inactive: 11.1%
19,CCOc1ccc(CN2CCc3nc(Nc4ccc(OC)cc4OC)ncc3C2)cc1,inactive: -1.59%
20,O=C(NCCCN1CCN(c2ccc(F)cc2)CC1)c1ccc2nc(Cc3ccccc3)oc2c1,inactive: -9.89%
21,CCSC1=NC2(CCN(C(=O)NC3CCCCC3)CC2)N=C1c1ccc(Cl)cc1,inactive: 0.222%
22,COc1ccc2c(c1)c1c(c(=O)n(CCc3ccccc3)c(=O)n1Cc1ccc(F)cc1)n2C,inactive: -2.65%
23,CCN(CC)CCCNC(=O)c1nn(C)c2c1CS(=O)(=O)c1ccccc1-2,inactive: 3.82%
24,Cc1ccccc1Cn1c(CN2CCC(C(=O)NCCc3ccccc3)CC2)cc2ccccc21,inactive: -4.81%

row,Compound,"activity change, negative = cytotoxicity"
1,CCC(=O)Nc1cccc(C(=O)OCc2cc(=O)n3nc(CC)sc3n2)c1,inactive: 1.15%
2,COc1ccc2c(c1)c1c(c(=O)n(-c3ccc(F)c(Cl)c3)c(=O)n1Cc1ccccc1C)n2C,inactive: 18.3%
3,Cc1ccc2sc(NC(=O)c3ccc4c(c3)OCCO4)nc2c1C,inactive: -3.21%
4,COc1ccc(NC(=O)c2c(-c3ccc(C)cc3)nnc3ccccc23)c(OC)c1,inactive: 3.45%
5,CCN(CC)c1nc2ccccc2nc1C(=O)Nc1cccc(C(C)=O)c1,inactive: -15.6%
6,CCOC(=O)c1c(S(=O)(=O)N2CCCC(C(=O)Nc3cccc(C)n3)C2)c(C)n(C)c1C (centres undefined),inactive: 6.28%
7,CCOc1ccc(C2CC(=O)Nc3c2c(=O)nc(SCc2ccccc2C)n3C)cc1OC (centres undefined),inactive: 2.15%
8,CCn1cc(C(=O)OCC(=O)Nc2cccc(C(C)=O)c2)c(=O)c2ccc(C)nc21,inactive: 6.37%
9,COc1ccc(Cn2c(=O)c3oc4ccccc4c3n(Cc3ccc(Cl)cc3)c2=O)cc1,inactive: 5.98%
10,CCCCCNC(=O)CCCCCn1c(=O)[nH]c2ccsc2c1=O,inactive: 13.9%
11,COc1ccc(CNC(=O)C2CCN(c3nc4ccccc4[nH]3)CC2)cc1OC,inactive: 1.97%
12,Cc1ccc(NC(=O)CSc2nnc3scc(-c4ccccc4)n23)cc1,inactive: 1.18%
13,O=C(Cn1nnc(-c2ccccc2Cl)n1)Nc1ccc(Br)cc1,inactive: 19%
14,COC(=O)c1ccc(OCC2c3cc(OC)c(OC)cc3CCN2C(=O)c2ccc(F)cc2)cc1 (centres undefined),inactive: -0.795%
15,CCOC(=O)c1c(C)[nH]c(C)c1S(=O)(=O)N1CCCC(C(=O)N2CCN(c3ccccc3)CC2)C1 (centres undefined),inactive: -0.734%
16,CCOCCc1nn2c(=O)cc(COC(=O)C3CCCCC3)nc2s1,inactive: 1.19%
17,Cc1cccn2c(=O)c3cc(C(=O)NC(C)c4ccccc4)c(=N)n(CCCO)c3nc12 (centres undefined),inactive: -14.8%
18,O=c1oc2c(CN3CCN(CCO)CC3)c(O)ccc2cc1-c1ccccc1,inactive: -2.52%
19,COc1ccc(Cn2ccc3nc(C)c(C(=O)NCc4ccc(F)cc4)cc3c2=O)cc1,inactive: 1.33%
20,Cc1ccc2c(=O)cc(C(=O)Nc3sc4c(c3C(=O)NCc3cccnc3)CCCC4)oc2c1C,inactive: -2.49%
21,Fc1ccc(-c2noc3ncnc(NCCCN4CCN(c5ccccc5)CC4)c23)cc1,inactive: -27.3%
22,CCc1cc(C(=O)Nc2cnn(Cc3ccccc3C)c2)no1,inactive: -0.218%

# From PubChem BioAssay AID1508642 (National Center for Advancing Translational Sciences (NCATS), 2021)
